Hit rate of the full screen: of about 110,000 compounds, about 230 (0.21%) showed an effect of 50% or more. The list shows a part of the results.
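Further: 30 min substrate incubation versus DMSO and 10 µM JCP410 controls.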

In this experiment the target is DPAP1 (Plasmodium falciparum, UniProt Q8IIJ9). The experiment in a line: primary screen, percent inhibition; read by cleavage of a fluorogenic dipeptide substrate; higher = more effect of the substance. On the set-up: species or system P. falciparum D10 trophozoite lysates; single well.
Chain of DPAP1 (Q8IIJ9 whole entry, looked up): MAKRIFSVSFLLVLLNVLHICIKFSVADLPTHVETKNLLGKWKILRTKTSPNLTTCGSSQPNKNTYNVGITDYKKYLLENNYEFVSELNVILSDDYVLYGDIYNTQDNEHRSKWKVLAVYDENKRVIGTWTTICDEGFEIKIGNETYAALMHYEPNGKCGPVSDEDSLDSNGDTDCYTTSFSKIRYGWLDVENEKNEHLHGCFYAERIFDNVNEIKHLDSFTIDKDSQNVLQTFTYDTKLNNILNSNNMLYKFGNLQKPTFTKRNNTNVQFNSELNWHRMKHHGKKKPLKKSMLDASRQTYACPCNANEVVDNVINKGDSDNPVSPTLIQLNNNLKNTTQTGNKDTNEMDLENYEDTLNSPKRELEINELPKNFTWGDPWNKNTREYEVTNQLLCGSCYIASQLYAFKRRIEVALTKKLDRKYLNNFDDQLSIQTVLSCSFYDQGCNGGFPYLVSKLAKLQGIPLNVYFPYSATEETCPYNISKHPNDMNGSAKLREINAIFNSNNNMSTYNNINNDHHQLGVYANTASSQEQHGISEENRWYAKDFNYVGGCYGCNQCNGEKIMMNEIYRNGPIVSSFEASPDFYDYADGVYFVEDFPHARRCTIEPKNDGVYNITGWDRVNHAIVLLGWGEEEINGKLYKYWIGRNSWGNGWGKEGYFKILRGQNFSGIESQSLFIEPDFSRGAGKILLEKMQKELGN
With `Cc1ccc(CNC(=O)C2CCN(c3nnc(-n4c(C)ccc4C)s3)CC2)cc1`, the “% Inhibition @ 10 uM” value worked out at 4.33%.

Regarding `CCOc1ccc(CC(=O)Nc2ccc(OC)cc2)cc1OCC`, the “% Inhibition @ 10 uM” value was -5.27%.

For `CC1CCCCC1NC(=O)COCc1cc(-c2cccs2)on1` (stereo not shown), the “% Inhibition @ 10 uM” value is recorded as -1.04%.

With `O=C(CCc1cn(Cc2ccc(F)cc2)c2ccccc12)NCc1cccnc1`, the “% Inhibition @ 10 uM” value was -1.11%.

With `COCCn1c(SCC(=O)NCC2CCCO2)nnc1-c1c[nH]c2ccccc12` (stereo not shown), the “% Inhibition @ 10 uM” value is recorded as -1.3%.

`COc1ccc(C2NN=C(c3ccccc3O)S2)cc1` (stereo not shown): the “% Inhibition @ 10 uM” value turned out to be 0.0538%.

Turning to `CC(C)=C1C2C=CC1C1C(=O)N(c3ccc(C)c(Br)c3)C(=O)C21` (stereo not shown), the “% Inhibition @ 10 uM” value is listed as -8.72%.

Turning to `CC(C)=C1N=C(c2ccccc2)OC1=O`, the “% Inhibition @ 10 uM” value is 1.42%.

Turning to `O=C(O)CC(NC(=O)C(c1ccccc1)c1ccccc1)c1ccco1` (stereo not shown), the “% Inhibition @ 10 uM” value worked out at 1.9%.

As for `c1cc(-c2noc(C34CC5CC(CC(C5)C3)C4)n2)ccn1`, the “% Inhibition @ 10 uM” value is given as 2.16%.

As for `Cc1ccc(/C=c2\sc3n(c2=O)C(N)=C(C#N)C(c2ccc(C)o2)C=3C#N)o1` (stereo not shown), the “% Inhibition @ 10 uM” value is given as 6.58%.

On to `COc1ccc(OC)c(CN2C[C@@H]3C[C@H](C2)c2cccc(=O)n2C3)c1`, for which the “% Inhibition @ 10 uM” value is on record as 4.7%.

Take `CCCCNC(=O)C(Sc1ccccc1)c1ccccc1` (stereo not shown): the “% Inhibition @ 10 uM” value is reported as 0.317%.

`O=C(c1cccnc1)N1CCN(Cc2ccc(Br)cc2)CC1`: the “% Inhibition @ 10 uM” value is given as 8.6%.

Regarding `Cc1ccc2nc(N3CC(=O)N(CCc4ccccc4)C(=O)C3)c3nncn3c2c1`, the “% Inhibition @ 10 uM” value was 0.981%.

As for `CN1C(=O)C(C(=O)NC(C)(C)C)C2CC1(C)Oc1ccccc12` (stereo not shown), the “% Inhibition @ 10 uM” value is on record as 0.147%.

Turning to `CC(=O)N1CCc2[nH]c3ccc(C)cc3c2C1`, the “% Inhibition @ 10 uM” value is on record as 1.02%.

As to `CSC1=NSC2=NC(=O)/C(=C\c3cccc4ccccc34)C(=N)N12`, the “% Inhibition @ 10 uM” value was -3.39%.

Regarding `CCN1CCN(C(CNC(=O)C(=O)NCCOC)c2cccnc2)CC1` (stereo not shown), the “% Inhibition @ 10 uM” value is -5.37%.

As to `CC(NCc1c(C(=O)O)n(C)c2ccccc12)C12CC3CC(CC(C3)C1)C2` (stereo not shown), the “% Inhibition @ 10 uM” value is listed as 5.09%.

Turning to `CCC1(C)CC(CCN2C(=O)c3ccccc3C2=O)(c2ccc(C)cc2)CCO1` (stereo not shown), the “% Inhibition @ 10 uM” value is -0.169%.

Consider `O=C(CSCc1ccc(Br)cc1)NCCSc1ccc(Cl)cc1`, for which the “% Inhibition @ 10 uM” value is listed as 3.05%.

On to `CC1OC(Nc2ccc(OC(F)(F)Cl)cc2)C(O)C(O)C1O` (stereo not shown), for which the “% Inhibition @ 10 uM” value is 5.15%.

In the case of `O=S(=O)(Nc1ccccc1Br)c1ccc(Br)cc1`, the “% Inhibition @ 10 uM” value is on record as -4.61%.

As to `CCOc1ccc(Nc2nc(C)c(C(C)=O)s2)cc1`, the “% Inhibition @ 10 uM” value is on record as -5.31%.

As for `COc1ccc(OC)c(C2CC(c3cccc(Br)c3)Nc3nnnn32)c1` (stereo not shown), the “% Inhibition @ 10 uM” value was 0.0842%.

`CC1CC(C)CN(C(=O)CCCn2c(=O)c3cccn3c3cccnc32)C1` (stereo not shown): the “% Inhibition @ 10 uM” value is listed as 2.03%.

Regarding `O=C(CCCN1C(=O)CSc2ncccc21)NCc1ccc2c(c1)OCO2`, the “% Inhibition @ 10 uM” value is recorded as -0.637%.

As to `O=C(c1ccco1)N(CCN(Cc1ccccc1)C(=O)c1ccco1)Cc1ccccc1`, the “% Inhibition @ 10 uM” value was -1.06%.

Consider `Cc1ccc2c(CN3CCCCCC3)cc(=O)oc2c1`, for which the “% Inhibition @ 10 uM” value was 0.00706%.

With `CCc1ccc(CNc2ncnc3onc(C)c23)cc1`, the “% Inhibition @ 10 uM” value is -4.4%.

For `CC1(C)CC(=O)C2=C(C1)OC(N)=C(C#N)C2c1cncc(-c2ccc(F)cc2)c1` (stereo not shown), the “% Inhibition @ 10 uM” value is recorded as -2.64%.

On to `Cc1cc(NCCc2ccc(F)cc2)nc2cc(Cl)ccc12`, for which the “% Inhibition @ 10 uM” value is given as 2.91%.

For `COc1cccc(/C=N/N=C(/c2ccc(Cl)cc2)C23CN4CN(CN(C4)C2)C3)c1`, the “% Inhibition @ 10 uM” value is -2.39%.

On to `CCOc1cccc(C2C(C(=O)OC)=CN(C(C)C)C=C2C(=O)OC)c1`, for which the “% Inhibition @ 10 uM” value is given as -6.93%.

As to `CCOC(=O)N1CCC(NC(=O)C2CCCCN2S(=O)(=O)c2ccc(F)cc2)CC1` (stereo not shown), the “% Inhibition @ 10 uM” value was -7.44%.

Take `O=C(O)CCCCn1c(SCC(=O)NCCC2=CCCCC2)nc2ccsc2c1=O`: the “% Inhibition @ 10 uM” value is recorded as -6.28%.

Take `CCOC(=O)C1CCCN(Cc2cccs2)C1` (stereo not shown): the “% Inhibition @ 10 uM” value is -5.41%.

Turning to `CCc1nc2ccc(C(=O)NCc3ccc(C)o3)cc2nc1CC`, the “% Inhibition @ 10 uM” value came to 1.11%.

For `CC(=O)c1ccc(NS(=O)(=O)c2cc(C(=O)Nc3ccc(Br)cc3)ccc2C)cc1`, the “% Inhibition @ 10 uM” value amounted to 5.61%.

Consider `CCc1nonc1NC(=O)c1cc(OC)c(OC)c(OC)c1`, for which the “% Inhibition @ 10 uM” value stood at 0.00706%.

For the compound `COC(=O)C1=C(C)N(CC(C)C)C(=O)/C1=C\c1ccc(C(=O)OC)cc1`, the “% Inhibition @ 10 uM” value is recorded as -7.18%.

As for `O=Cc1cccn1-c1nnc(N2CCCC2=O)s1`, the “% Inhibition @ 10 uM” value is reported as -1.6%.

With `Cc1oc(-c2cccs2)nc1CSc1nc2ccncc2[nH]1`, the “% Inhibition @ 10 uM” value worked out at 4.22%.

On to `O=S(=O)(NC1CCCCC1)c1ccc(Oc2ccc(S(=O)(=O)NC3CCCCC3)cc2)cc1`, for which the “% Inhibition @ 10 uM” value is listed as -0.0369%.

With `COc1cc2c(cc1C)-c1nc(NC(C)=O)sc1CC2`, the “% Inhibition @ 10 uM” value came out at 7.49%.

As to `CC1CCCCN1C(=O)c1cc(Cl)ccc1NC(=O)c1ccco1` (stereo not shown), the “% Inhibition @ 10 uM” value is on record as -1.46%.

Regarding `OC(CNCc1ccccc1)COc1cccc2ccccc12` (stereo not shown), the “% Inhibition @ 10 uM” value is on record as 2.75%.

With `Cc1nc2ccccc2n1Cc1ccc(Br)cc1`, the “% Inhibition @ 10 uM” value is -2.35%.

Take `CCN1CCN(C(=O)C2CCCN(C(=O)c3cnn(-c4ccccc4)c3-n3cccc3)C2)CC1` (stereo not shown): the “% Inhibition @ 10 uM” value is on record as -3.79%.

On to `COc1ccc(C)cc1N(CC(=O)Nc1ccc(S(=O)(=O)N2CCOCC2)cc1)S(C)(=O)=O`, for which the “% Inhibition @ 10 uM” value is 0.163%.

For the compound `CCCc1ccc(OCC(O)CN2CCN(C)CC2)cc1` (stereo not shown), the “% Inhibition @ 10 uM” value is -0.424%.

Regarding `Cc1cc(Oc2nc3ccccn3c(=O)c2/C=C(\C#N)C(=O)NC2CCS(=O)(=O)C2)ccc1Cl` (stereo not shown), the “% Inhibition @ 10 uM” value is 1.19%.

As to `Cn1nc(C(=O)NCCN2CCc3ccccc3C2)c2c1-c1ccccc1SC2`, the “% Inhibition @ 10 uM” value is 3.3%.

For the compound `O=C(CSc1nnc(-c2ccco2)o1)NCc1ccccc1`, the “% Inhibition @ 10 uM” value was -1.68%.

In the case of `CCc1ccccc1N(CC(=O)NCCc1ccccc1)S(C)(=O)=O`, the “% Inhibition @ 10 uM” value was -2.66%.

For the compound `CSc1ncc(Cl)c(C(=O)Nc2sc3c(c2C(=O)NCCc2ccccc2)CCC3)n1`, the “% Inhibition @ 10 uM” value is listed as -8.43%.

In the case of `O=C1N=C(N2CCOCC2)S/C1=C/c1c[nH]nc1-c1ccccc1`, the “% Inhibition @ 10 uM” value was -0.0626%.

Take `O=C(Nc1ccc(Cl)cc1)Nc1ccc(Cl)cc1Cl`: the “% Inhibition @ 10 uM” value worked out at 4.51%.

With `CC1CCN(C(=O)c2cnn(-c3ccccc3)c2-n2cccc2)CC1`, the “% Inhibition @ 10 uM” value is -5.15%.

As to `COc1cc(/C=C2/NC(=O)N(Cc3ccccc3F)C2=O)ccc1OC(C)C`, the “% Inhibition @ 10 uM” value amounted to 0.528%.

Regarding `N#Cc1ccc(Cn2c(=O)oc3ccccc32)cc1`, the “% Inhibition @ 10 uM” value is recorded as -2.54%.

As to `Cc1ccccc1Cn1cc(NC(=O)c2cc(-c3ccco3)on2)cn1`, the “% Inhibition @ 10 uM” value is reported as -7.15%.

Regarding `COc1ccc(C(=O)CC(=O)c2cc(Cl)ccc2O)cc1OC`, the “% Inhibition @ 10 uM” value was found to be 3.16%.

(Values after article PMC6919601, “Identification of Plasmodium dipeptidyl aminopeptidase allosteric inhibitors by high throughput screening” (PLoS ONE, 2019).)
